The results in this text go back to the supplement of paper PMC4604168 (melanoma cell lines).

The list shows a part of the results. Single values are uncertain, as repeats are few or missing.
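Further: cell number obtained by counting DAPI-stained nuclei in high-throughput microscope images with image analysis software, screen run in 1,536-well plates.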

For this experiment, the system named is MZ2-MEL. The experiment is described as follows: cell count relative to DMSO control; melanoma cells; higher = more viable cells. As to conditions: library dose: low library concentration; 72 h.
Turning to `CC(=O)O[C@@]12CO[C@@H]1C[C@H](O)[C@@]1(C)C(=O)[C@H](O)C3=C(C)[C@@H](OC(=O)[C@H](O)[C@@H](NC(=O)OC(C)(C)C)c4ccccc4)C[C@@](O)([C@@H](OC(=O)c4ccccc4)[C@H]21)C3(C)C` [Docetaxel] + CN(NC(=O)CC(=O)NN(C)C(=S)c1ccccc1)C(=S)c1ccccc1 [STA4783] (first compound 0.0001 µM, partner dose 0.006 µM), the cell count is 54.3%.
Then `CC(=O)O[C@@]12CO[C@@H]1C[C@H](O)[C@@]1(C)C(=O)[C@H](O)C3=C(C)[C@@H](OC(=O)[C@H](O)[C@@H](NC(=O)OC(C)(C)C)c4ccccc4)C[C@@](O)([C@@H](OC(=O)c4ccccc4)[C@H]21)C3(C)C` [Docetaxel] + Cc1ccc(NC(=O)c2cccc(N(C)C)c2)cc1NC(=O)c1ccc(O)cc1 [ZM336372] (first compound 0.0001 µM, partner dose 2 µM), with 46%; and `Nc1ncn([C@H]2C[C@H](O)[C@@H](CO)O2)c(=O)n1` [decitabine] + CO[C@@H]1[C@H](N(C)C(=O)c2ccccc2)C[C@H]2O[C@]1(C)n1c3ccccc3c3c4c(c5c6ccccc6n2c5c31)C(=O)NC4 [Midostaurin] (first compound 0.1 µM, partner dose 0.08 µM), with 74.9%; and `Nc1ccn([C@@H]2O[C@H](CO)[C@@H](O)C2(F)F)c(=O)n1` [gemcitabine] + CCc1ccc(CCOc2ccc(CC3SC(=O)NC3=O)cc2)nc1 [pioglitazone] (first compound 0.0004 µM, partner dose 2 µM), with 90.2%.
In turn, `CC(=O)c1c(C)c2cnc(Nc3ccc(N4CCNCC4)cn3)nc2n(C2CCCC2)c1=O` [palbociclib] + C=CCn1c(=O)c2cnc(Nc3ccc(N4CCN(C)CC4)cc3)nc2n1-c1cccc(C(C)(C)O)n1 [MK1775] (first compound 0.04 µM, partner dose 0.02 µM) displayed a cell count of 71.6%.
Consider `CC(=O)c1c(C)c2cnc(Nc3ccc(N4CCNCC4)cn3)nc2n(C2CCCC2)c1=O` [palbociclib] + Oc1cc(-c2nc(-c3ccccc3)[nH]c2-c2ccncc2)ccc1Cl [L779450] (first compound 0.04 µM, partner dose 0.2 µM), for which the cell count amounted to 64.9%.
`Nc1ncn([C@H]2C[C@H](O)[C@@H](CO)O2)c(=O)n1` [decitabine] + c1cc(-c2cnn3cc(-c4ccc(OCCN5CCCCC5)cc4)cnc23)ccn1 [Dorsomorphin] (first compound 0.1 µM, partner dose 0.4 µM): the cell count turned out to be 99.3%.
`Nc1ncn([C@H]2C[C@H](O)[C@@H](CO)O2)c(=O)n1` [decitabine] + O=C(Nc1ccccc1)c1cc([N+](=O)[O-])ccc1Cl [GW9662] (first compound 0.1 µM, partner dose 2 µM) registered a cell count of 93.4%.
As for `Nc1ncn([C@H]2C[C@H](O)[C@@H](CO)O2)c(=O)n1` [decitabine] + O=C(Nc1cccc(Cl)c1)Nc1ncc(CCNc2ncnc3ccsc23)s1 [SNS314] (first compound 0.1 µM, partner dose 0.0008 µM), the figure is 80.4%; as for `CC(=O)O[C@@]12CO[C@@H]1C[C@H](O)[C@@]1(C)C(=O)[C@H](O)C3=C(C)[C@@H](OC(=O)[C@H](O)[C@@H](NC(=O)OC(C)(C)C)c4ccccc4)C[C@@](O)([C@@H](OC(=O)c4ccccc4)[C@H]21)C3(C)C` [Docetaxel] + Cn1cncc1[C@@](N)(c1ccc(Cl)cc1)c1ccc2c(c1)c(-c1cccc(Cl)c1)cc(=O)n2C [tipifarnib] (first compound 0.0001 µM, partner dose 0.01 µM), 48.9%; as for `Nc1nc(F)nc2c1ncn2[C@@H]1O[C@H](CO)[C@@H](O)[C@@H]1O` [fludarabine] + CC1(C)NC(=O)N(c2ccc([N+](=O)[O-])c(C(F)(F)F)c2)C1=O [nilutamide] (first compound 0.2 µM, partner dose 1 µM), 102%.
Consider `Nc1ncn([C@H]2C[C@H](O)[C@@H](CO)O2)c(=O)n1` [decitabine] + O=C(CCCCCCC(=O)Nc1ccccc1)NO [vorinostat] (first compound 0.1 µM, partner dose 0.08 µM), for which the cell count came to 88.2%.
Then `CC(=O)c1c(C)c2cnc(Nc3ccc(N4CCNCC4)cn3)nc2n(C2CCCC2)c1=O` [palbociclib] + COc1ccc(-c2ccc3c(N4CCOCC4)nc(N4C[C@@H](C)O[C@@H](C)C4)nc3n2)cc1CO [KU0063794] (first compound 0.04 µM, partner dose 0.02 µM), with 90.6%.
